Source: the supplement of paper PMC10369915
The other results are listed elsewhere or left out. No stated cut-off is given here; in the data, active = 3.2 or more and inactive = the rest. The signal is at background level for most entries.

Each binder was assayed against SHP2 C-SH2 domain E139D (assay: enrichment score (SH2-bound / input frequency) (ratio); bacterial display of known human phosphotyrosine sites (pTyr-Var adds point mutants) read by sequencing; higher = stronger binding; tyrosines were phosphorylated by kinases first). Conditions: peptide library: pTyr-Var.
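Further: displayed peptides selected on beads carrying the immobilized SH2 domain, with library peptides lacking any tyrosine serving as negative controls.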

Enrichment score, inactive:
FMCKVYSDPQP [FGFR1_Y280] 0.721
FMYKVYSDPQP [FGFR1_Y280_C277Y] 0.611
LVSCAYQVARG [FGFR1_Y605] 0.839
ARGMEYLASKN [FGFR1_Y613_K618N] 0.529
IHHIDYFKETT [FGFR1_Y653_K656E_YF] 1.26
HHIDFYKKTTN [FGFR1_Y654_YF] 0.94
LGGSPYPGVPV [FGFR1_Y701] 0.773
LGGSPYPRVPV [FGFR1_Y701_G703R] 0.921
LGGSPYPSVPV [FGFR1_Y701_G703S] 1.47
CTNELYMMMRD [FGFR1_Y730] 0.922
YTNELYMMMRD [FGFR1_Y730_C725Y] 1.03
TSNQEYLDLSM [FGFR1_Y766] 0.821
TSNQEYLFLSM [FGFR1_Y766_D768Y_YF] 0.74
MPLDQYSPSFP [FGFR1_Y776] 0.687
LVSCTYQLARG [FGFR2_Y608] 0.873
LVSCTYQLATG [FGFR2_Y608_R612T] 0.993
ARRMEYLASQK [FGFR2_Y616_G613R] 0.706
INNIDYYKKTT [FGFR2_Y656] 0.517
INNIDYYKNTT [FGFR2_Y656_K659N] 1.31

What follows are binders tested against SHP2 C-SH2 domain wild-type in the same assay as above. Conditions: peptide library: pTyr-Var.

Enrichment score, inactive:
FMCKVYSDPQP [FGFR1_Y280] 1.14
FMYKVYSDPQP [FGFR1_Y280_C277Y] 0.479
LVSCAYQVARG [FGFR1_Y605] 1.02
ARGMEYLASKN [FGFR1_Y613_K618N] 0.57
IHHIDYFKETT [FGFR1_Y653_K656E_YF] 0.93
HHIDFYKKTTN [FGFR1_Y654_YF] 0.555
LGGSPYPGVPV [FGFR1_Y701] 0.639
LGGSPYPRVPV [FGFR1_Y701_G703R] 0.79
LGGSPYPSVPV [FGFR1_Y701_G703S] 0.707
CTNELYMMMRD [FGFR1_Y730] 1.51
YTNELYMMMRD [FGFR1_Y730_C725Y] 0.867
TSNQEYLDLSM [FGFR1_Y766] 0.831
TSNQEYLFLSM [FGFR1_Y766_D768Y_YF] 0.827
MPLDQYSPSFP [FGFR1_Y776] 0.845
LVSCTYQLARG [FGFR2_Y608] 0.91
LVSCTYQLATG [FGFR2_Y608_R612T] 1.37
ARRMEYLASQK [FGFR2_Y616_G613R] 0.396
INNIDYYKKTT [FGFR2_Y656] 0.63
INNIDYYKNTT [FGFR2_Y656_K659N] 0.804

What follows are binders tested against SHP2 N-SH2 domain L43F in the same assay as above. Conditions: peptide library: pTyr-Var.

Enrichment score, inactive:
FMCKVYSDPQP [FGFR1_Y280] 1.06
FMYKVYSDPQP [FGFR1_Y280_C277Y] 0.699
LVSCAYQVARG [FGFR1_Y605] 1.16
ARGMEYLASKN [FGFR1_Y613_K618N] 0.561
IHHIDYFKETT [FGFR1_Y653_K656E_YF] 1.07
HHIDFYKKTTN [FGFR1_Y654_YF] 0.523
LGGSPYPGVPV [FGFR1_Y701] 0.767
LGGSPYPRVPV [FGFR1_Y701_G703R] 0.773
LGGSPYPSVPV [FGFR1_Y701_G703S] 0.831
CTNELYMMMRD [FGFR1_Y730] 1.01
YTNELYMMMRD [FGFR1_Y730_C725Y] 1.14
TSNQEYLDLSM [FGFR1_Y766] 0.863
TSNQEYLFLSM [FGFR1_Y766_D768Y_YF] 0.765
MPLDQYSPSFP [FGFR1_Y776] 0.749
LVSCTYQLARG [FGFR2_Y608] 0.676
LVSCTYQLATG [FGFR2_Y608_R612T] 1.08
ARRMEYLASQK [FGFR2_Y616_G613R] 0.617
INNIDYYKKTT [FGFR2_Y656] 0.722
INNIDYYKNTT [FGFR2_Y656_K659N] 1.05

What follows are binders tested against SHP2 N-SH2 domain T42A in the same assay as above. Conditions: peptide library: pTyr-Var.

Enrichment score, inactive:
FMCKVYSDPQP [FGFR1_Y280] 0.706
FMYKVYSDPQP [FGFR1_Y280_C277Y] 0.447
LVSCAYQVARG [FGFR1_Y605] 0.789
ARGMEYLASKN [FGFR1_Y613_K618N] 0.49
IHHIDYFKETT [FGFR1_Y653_K656E_YF] 0.916
HHIDFYKKTTN [FGFR1_Y654_YF] 0.535
LGGSPYPGVPV [FGFR1_Y701] 0.567
LGGSPYPRVPV [FGFR1_Y701_G703R] 0.716
LGGSPYPSVPV [FGFR1_Y701_G703S] 0.649
CTNELYMMMRD [FGFR1_Y730] 0.865
YTNELYMMMRD [FGFR1_Y730_C725Y] 1.16
TSNQEYLDLSM [FGFR1_Y766] 0.796
TSNQEYLFLSM [FGFR1_Y766_D768Y_YF] 0.618
MPLDQYSPSFP [FGFR1_Y776] 0.588
LVSCTYQLARG [FGFR2_Y608] 0.756
LVSCTYQLATG [FGFR2_Y608_R612T] 0.639
ARRMEYLASQK [FGFR2_Y616_G613R] 0.562
INNIDYYKKTT [FGFR2_Y656] 0.415
INNIDYYKNTT [FGFR2_Y656_K659N] 0.716

What follows are binders tested against SHP2 N-SH2 domain T52S in the same assay as above. Conditions: peptide library: pTyr-Var.

Enrichment score, inactive:
FMCKVYSDPQP [FGFR1_Y280] 0.507
FMYKVYSDPQP [FGFR1_Y280_C277Y] 0.531
LVSCAYQVARG [FGFR1_Y605] 0.802
ARGMEYLASKN [FGFR1_Y613_K618N] 0.502
IHHIDYFKETT [FGFR1_Y653_K656E_YF] 1.16
HHIDFYKKTTN [FGFR1_Y654_YF] 0.408
LGGSPYPGVPV [FGFR1_Y701] 0.873
LGGSPYPRVPV [FGFR1_Y701_G703R] 0.744
LGGSPYPSVPV [FGFR1_Y701_G703S] 0.8
CTNELYMMMRD [FGFR1_Y730] 0.821
YTNELYMMMRD [FGFR1_Y730_C725Y] 0.929
TSNQEYLDLSM [FGFR1_Y766] 0.796
TSNQEYLFLSM [FGFR1_Y766_D768Y_YF] 0.847
MPLDQYSPSFP [FGFR1_Y776] 0.568
LVSCTYQLARG [FGFR2_Y608] 0.677
LVSCTYQLATG [FGFR2_Y608_R612T] 0.897
ARRMEYLASQK [FGFR2_Y616_G613R] 0.576
INNIDYYKKTT [FGFR2_Y656] 0.597
INNIDYYKNTT [FGFR2_Y656_K659N] 0.874

What follows are binders tested against SHP2 N-SH2 domain wild-type in the same assay as above. Conditions: peptide library: pTyr-Var.

Enrichment score, inactive:
FMCKVYSDPQP [FGFR1_Y280] 1.18
FMYKVYSDPQP [FGFR1_Y280_C277Y] 0.662
LVSCAYQVARG [FGFR1_Y605] 1.24
ARGMEYLASKN [FGFR1_Y613_K618N] 0.569
IHHIDYFKETT [FGFR1_Y653_K656E_YF] 0.953
HHIDFYKKTTN [FGFR1_Y654_YF] 0.886
LGGSPYPGVPV [FGFR1_Y701] 0.878
LGGSPYPRVPV [FGFR1_Y701_G703R] 0.863
LGGSPYPSVPV [FGFR1_Y701_G703S] 0.772
CTNELYMMMRD [FGFR1_Y730] 1.45
YTNELYMMMRD [FGFR1_Y730_C725Y] 0.985
TSNQEYLDLSM [FGFR1_Y766] 0.994
TSNQEYLFLSM [FGFR1_Y766_D768Y_YF] 0.709
MPLDQYSPSFP [FGFR1_Y776] 0.695
LVSCTYQLARG [FGFR2_Y608] 1.11
LVSCTYQLATG [FGFR2_Y608_R612T] 1.34
ARRMEYLASQK [FGFR2_Y616_G613R] 0.494
INNIDYYKKTT [FGFR2_Y656] 0.372
INNIDYYKNTT [FGFR2_Y656_K659N] 0.993
